Reference: the supplement of paper PMC3334620
In all, about 33,000 sequences were measured (“E-score (-0.5 to 0.5)”: median about -0.035, highest 2% from about 0.34 on). This is one part of the list.

biological target: T1, Mot3 (UniProt P54785); assay: PBM E-score (8-mer binding enrichment) (E-score (-0.5 to 0.5)); higher = stronger / more preferred TF binding; most listed sequences are background and not binding sites; conditions: protein concentration: 200 nM; construct: GST-full length
T1 sequence: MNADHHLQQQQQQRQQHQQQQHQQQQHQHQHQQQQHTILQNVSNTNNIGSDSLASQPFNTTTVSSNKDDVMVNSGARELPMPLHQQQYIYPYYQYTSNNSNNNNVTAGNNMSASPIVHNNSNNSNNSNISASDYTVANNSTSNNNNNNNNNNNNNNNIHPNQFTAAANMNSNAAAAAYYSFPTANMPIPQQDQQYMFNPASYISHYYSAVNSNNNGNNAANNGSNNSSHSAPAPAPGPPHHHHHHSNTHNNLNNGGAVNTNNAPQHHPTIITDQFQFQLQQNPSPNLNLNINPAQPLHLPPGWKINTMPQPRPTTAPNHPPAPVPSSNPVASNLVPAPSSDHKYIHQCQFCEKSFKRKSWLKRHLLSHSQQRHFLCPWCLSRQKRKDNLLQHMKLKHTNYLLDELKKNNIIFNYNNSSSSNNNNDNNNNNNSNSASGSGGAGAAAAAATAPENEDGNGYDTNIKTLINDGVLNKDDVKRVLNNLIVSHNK
Procedure, shortened: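 GST-tagged yeast TFs (full-length or DNA-binding domain) were made by PURExpress in vitro transcription/translation and applied at about 100-200 nM to universal all-10-mer Agilent arrays. The arrays were made double-stranded by primer extension, on fresh or once-stripped slides. Bound protein was detected with fluorescent anti-GST, and scans were normalised with masliner. Each ungapped eight-base word, pooled with its reverse complement, received an E-score (modified Wilcoxon-Mann-Whitney statistic) from the Universal PBM Analysis Suite.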

Sequence | PBM E-score
GCAATCGA | 0.00258
CGGGTAAC | -0.0233
ACCAGCGA | -0.19
ACGTCATG | 0.0693
ATTACGCG | 0.377
ATCCTCAA | -0.111
GTATCCAA | -0.0981
GAATTCAC | 0.00672
ATTGACAG | -0.0116
GAAAGTCC | -0.191
AAATTAGA | 0.0473
TCCAATCA | -0.0285
CTCGTTGA | -0.0503
CACCGGAA | -0.0631
CCATGTGA | 0.141
GACACATA | 0.167
AGGAACTC | 0.396
AGTAACGA | -0.0297
AAGGTAGT | -0.0675
AACGCAGC | 0.0742
CGCTTGAG | -0.145
AAGCGACA | -0.121

Sequence | PBM E-score
AATTTCGT | 0.0592
AGATAAAA | 0.0842
AATCGCCG | -0.211
GCCGGTGA | -0.159
CACCGTCC | -0.193
CGATATCA | -0.0141
AGGCCGCA | -0.18
ATTATATA | 0.118
CCGACACA | -0.042
CACTCACA | -0.159
AGGTCCAT | 0.0126
TCGCTAAA | 0.0723
ACTGTTCA | -0.094
AGCGTTCA | -0.207
GGCAAACC | 0.102
TAACCTCA | -0.0342
GCGGTGAA | -0.274
AAATCTGA | -0.0381
AGCTATGA | -0.185
CATCGGAC | -0.171
CACGTATA | 0.18
ATTAAGCG | -0.0548

Sequence | PBM E-score
CCTGGGCA | -0.218
ACGTCTAT | -0.151
CGTCCGGA | -0.085
CATACCTC | 0.0531
CCCCATGA | -0.11
AGAAAACG | 0.11
GGACTCCA | -0.162
CCATCAAG | -0.111
ACCATCCA | -0.0488
ATCAGGCA | 0.481
ACCTCTCT | -0.236
AGCCTGAC | -0.118
GCATGTAA | 0.41
ACTAAAGC | 0.0721
AAAGCGTA | 0.0441
GCACGATA | 0.0959
CAATCTGG | 0.12
TAGATCAA | 0.127
CACATTAA | 0.2
AAAGTGAT | 0.0249
GACCCACC | -0.306
AACGCTCC | -0.0471

Sequence | PBM E-score
GATACCCA | -0.0774
ACTCATCC | -0.106
GCTACGAA | -0.025
ATGATTGG | -0.122
AAACAGCC | -0.0389
AAAGGTAG | -0.135
CTGCCCCC | -0.194
CTGACGCC | -0.161
ATCCCTAG | -0.00685
CACTGAAC | 0.0593
ACGCGGTC | 0.175
ACCACCTA | -0.147
CGCGGCTA | -0.0609
CGGAGTCC | -0.101
GCATTGCA | -0.0064
AAGGGCAC | 0.277
ACGCAACC | 0.075
ACTCATAA | -0.0862
CTCTAAAG | -0.0723
AGCTCATG | -0.063
